# Assay results as given in a collection of fitness landscapes (doi:10.1016/j.celrep.2020.107928).
# Over roughly 81,000 sequences, “one-hybrid fitness for binding NBS DNA” has its median near -0.1; the highest 2% begin near 0.36. The list shows a part of the results.
# B1: Caulobacter ParB omega fusion; a variant is named by its letters at X, in order, B8GW30 (parent)
# chain: MESVVVGEPGMSEGRRGLGRGLSALLGEVDAAPAQAPGEQLGGSREAPIEILQRNPDQPRRTFREEDLEDLSNSIREKGVLQPILVRPSPDTAGEYQIVAGERAWRAAQRAGLKTVPIMVRELDDLAVLEIGIIENVQRADLNVLEEALSYKVLMEKFERTQENIAQTIGKSXSHVANXMRLLXLPDEVQSYLVSGELTAXHARAIAAAADPVALAKQIIEGGLSVRETEALARKAPNLSAGKSKGGRPPRVKDTDTQALESDLSSVLGLDVSIDHRGSTGTLTITYATLEQLDDLCNRLTRGI
# Variants of: B1
# Experiment: one-hybrid fitness for binding NBS DNA (the Noc-binding site; scaled: cognate 1, non-cognate 0); higher = stronger binding
# Conditions: with NBS DNA site
# Procedure, shortened: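 Pre- and post-selection plasmids were Illumina-sequenced, three replicate libraries were pooled, and any variant with under 10 reads was removed. The libraries were Caulobacter ParB with four specificity codons randomised, selected in E. coli USO through a HIS3 reporter whose site is 19 bp from the promoter. Cells grew 48 hours at 37°C on M9 without histidine, with 0.1 mM IPTG and 5 mM 3-AT. Fitness is the log change in variant-to-wild-type read ratio, rescaled against cognate and non-cognate.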
row,Variant,one-hybrid fitness for binding NBS DNA
1,MSCN,≤ 0.2
2,TVAW,≤ 0.2
3,RCNK,≤ 0.2
4,AACA,≤ 0.2
5,LCCC,≤ 0.2
6,PKER,≤ 0.2
7,SPSM,≤ 0.2
8,KTLS,≤ 0.2
9,DRYY,≤ 0.2
10,GSFG,≤ 0.2
11,DPHT,≤ 0.2
12,QLIT,0.287
13,LVFG,≤ 0.2
14,NEVN,≤ 0.2
15,IDSG,≤ 0.2
16,KPGG,≤ 0.2
17,ANDR,≤ 0.2
18,IRDT,≤ 0.2
19,KESS,≤ 0.2
20,VPNA,≤ 0.2
21,EEVT,≤ 0.2
22,READ,≤ 0.2
23,RVAQ,≤ 0.2
24,VTKY,≤ 0.2
25,IRCY,≤ 0.2

row,Variant,one-hybrid fitness for binding NBS DNA
1,ASGS,≤ 0.2
2,VAET,≤ 0.2
3,EPMC,≤ 0.2
4,EFGL,≤ 0.2
5,NVQG,≤ 0.2
6,MITG,≤ 0.2
7,KAMF,≤ 0.2
8,TPPP,≤ 0.2
9,RSMR,0.369
10,RSRS,0.593
11,IKHR,≤ 0.2
12,QAIR,0.308
13,RDLM,≤ 0.2
14,WDAC,≤ 0.2
15,SDAE,≤ 0.2
16,RITT,0.421
17,KTGL,≤ 0.2
18,VMVS,≤ 0.2
19,NQPI,≤ 0.2
20,ELSS,≤ 0.2
21,SKIS,≤ 0.2
22,PWQL,≤ 0.2
23,SLQL,≤ 0.2
24,STLR,≤ 0.2
25,MTEW,≤ 0.2

row,Variant,one-hybrid fitness for binding NBS DNA
1,LPLD,≤ 0.2
2,PEIR,≤ 0.2
3,HNSV,≤ 0.2
4,SMEW,≤ 0.2
5,ELVM,≤ 0.2
6,FSAT,≤ 0.2
7,IYRH,≤ 0.2
8,SCAK,≤ 0.2
9,YYES,≤ 0.2
10,IAPW,≤ 0.2
11,GFGR,≤ 0.2
12,SAVT,≤ 0.2
13,KYDC,≤ 0.2
14,VMMF,≤ 0.2
15,WWSA,≤ 0.2
16,HDML,≤ 0.2
17,PKHQ,≤ 0.2
18,LAFR,≤ 0.2
19,RLMA,≤ 0.2
20,CPSI,≤ 0.2
21,VRVN,≤ 0.2
22,ANIR,≤ 0.2
23,KERG,≤ 0.2
24,HAEC,≤ 0.2
25,RWAN,≤ 0.2

row,Variant,one-hybrid fitness for binding NBS DNA
1,YVTF,≤ 0.2
2,SDKC,≤ 0.2
3,WYGT,≤ 0.2
4,YDES,≤ 0.2
5,LSYE,≤ 0.2
6,WTAT,≤ 0.2
7,CMLS,≤ 0.2
8,TPDA,≤ 0.2
9,RDEF,≤ 0.2
10,WLGS,≤ 0.2
11,HTSI,≤ 0.2
12,FYPY,≤ 0.2
13,NNLL,≤ 0.2
14,DLCA,≤ 0.2
15,GCRR,≤ 0.2
16,FTWS,≤ 0.2
17,VYKQ,≤ 0.2
18,SSLW,≤ 0.2
19,MHPT,≤ 0.2
20,PWRG,≤ 0.2
21,HLRH,≤ 0.2
22,EYHN,≤ 0.2
23,MYIR,≤ 0.2
24,TQKF,≤ 0.2
25,LIKF,≤ 0.2

row,Variant,one-hybrid fitness for binding NBS DNA
1,LYMN,≤ 0.2
2,VSLW,≤ 0.2
3,RVPF,≤ 0.2
4,HCVK,≤ 0.2
5,ERQR,≤ 0.2
6,YLIG,≤ 0.2
7,HVKG,≤ 0.2
8,TTHK,≤ 0.2
9,QYMI,≤ 0.2
10,PKYP,≤ 0.2
11,YDTN,≤ 0.2
12,TLPC,≤ 0.2
13,SPQC,≤ 0.2
14,LDDG,≤ 0.2
15,IHRR,≤ 0.2
16,CHSA,≤ 0.2
17,QKPH,≤ 0.2
18,LCMG,≤ 0.2
19,RVRN,≤ 0.2
20,HKSV,≤ 0.2
21,ECSR,≤ 0.2
22,ALSN,≤ 0.2
23,YPRD,≤ 0.2
24,ACPR,≤ 0.2
25,HPKR,≤ 0.2

row,Variant,one-hybrid fitness for binding NBS DNA
1,CFLT,≤ 0.2
2,PHTC,≤ 0.2
3,NDYS,≤ 0.2
4,CAIM,≤ 0.2
5,IAAD,≤ 0.2
6,TGHL,≤ 0.2
7,NANV,≤ 0.2
8,AVKD,≤ 0.2
9,YLTD,≤ 0.2
10,ATVT,≤ 0.2
11,QMDE,≤ 0.2
12,TQFD,≤ 0.2
13,QLHF,≤ 0.2
14,NRQG,≤ 0.2
15,SEAA,≤ 0.2
16,SLGQ,≤ 0.2
17,YFTT,≤ 0.2
18,RAVE,≤ 0.2
19,RDFY,≤ 0.2
20,YEGF,≤ 0.2
21,QLHD,≤ 0.2
22,ASCR,≤ 0.2
23,VVCV,≤ 0.2
24,RTPI,≤ 0.2
25,SCRH,≤ 0.2

row,Variant,one-hybrid fitness for binding NBS DNA
1,WDES,≤ 0.2
2,AGRW,≤ 0.2
3,ETNA,≤ 0.2
4,PDIN,≤ 0.2
5,LTMN,≤ 0.2
6,EPEG,≤ 0.2
7,RWPP,≤ 0.2
8,QRMC,0.333
9,AKGN,≤ 0.2
10,AHVL,≤ 0.2
11,ATPH,≤ 0.2
12,SGDW,≤ 0.2
13,SIAC,≤ 0.2
14,QPGH,≤ 0.2
15,TSPW,≤ 0.2
16,QCVI,≤ 0.2
17,LLNT,≤ 0.2
18,WPIP,≤ 0.2
19,VQGG,≤ 0.2
20,HCDI,≤ 0.2
21,LWRT,≤ 0.2
22,SMCG,≤ 0.2
23,KTRD,≤ 0.2
24,RQNM,≤ 0.2
25,ECPR,≤ 0.2

row,Variant,one-hybrid fitness for binding NBS DNA
1,SMFI,≤ 0.2
2,RMLG,≤ 0.2
3,GPVY,≤ 0.2
4,LPPY,≤ 0.2
5,QGAS,≤ 0.2
6,PHHT,≤ 0.2
7,TGTK,≤ 0.2
8,LDCW,≤ 0.2
9,NTDG,≤ 0.2
10,NRMT,≤ 0.2
11,PKSL,≤ 0.2
12,PTEE,≤ 0.2
13,ICHW,≤ 0.2
14,NFKG,≤ 0.2
15,EHAV,≤ 0.2
16,RFTY,≤ 0.2
17,LHAP,≤ 0.2
18,QDLR,≤ 0.2
19,QCIW,≤ 0.2
20,NIAC,≤ 0.2
